The source of these data is ChEMBL document CHEMBL4888484, “Replenishing the malaria drug discovery pipeline: Screening and hit evaluation of the MMV Hit Generation Library 1 (HGL1) against asexual blood stage Plasmodium falciparum ,using a nano luciferase reporter read-out” (2022).

The campaign covered roughly 150,000 compounds. About 540 (0.36%) showed an effect of 50% or more. Some of the results follow.

The term % Inhibition denotes the relative decrease from the control value, in per cent.

The subject of this experiment is Plasmodium falciparum. Description: Primary screen in NF54 nanoGlo assay, in single point, at 2uM, 72h; a lower Z score goes with more inhibition. The experiment is classed as functional, Erythrocyte. The settings on record: timepoint 72 hour.
Turning to `N#CCNC(=O)c1cccc(Br)c1Cl`, the “% Inhibition” value is 6% and the Z score is -0.77.
Turning to `CCOc1ccc2c(c1)-c1c(ssc1=S)C(C)(C)N2C(=O)CN1CCCCC1`, the “% Inhibition” value is on record as -3% and the Z score is 0.66.
For the compound `c1ccc2cc(-c3csc(N4CCCCC4)n3)ccc2c1`, the “% Inhibition” value is recorded as -15% and the Z score is given as 2.4.
Take `CCOCc1nc2c(c(NCCc3scnc3C)n1)CCNCC2`: the “% Inhibition” value was -3% and the Z score is listed as 0.63.
For `COc1c[nH]c(C(=O)NCCc2nc(C)no2)cc1=O`, the “% Inhibition” value was determined as 11% and the Z score was -1.47.
Consider `CC(C)(C)NCCNC(=O)CCc1cccc(F)c1F`, for which the “% Inhibition” value was -14% and the Z score stood at 1.94.
Take `COc1cccc(CNS(=O)(=O)c2cc3c(cc2Br)CCN3C(C)=O)c1`: the “% Inhibition” value is recorded as -5% and the Z score is reported as 0.83.
Take `Cc1nc(-c2cccc(-c3noc(-c4ccccn4)n3)c2)cs1`: the “% Inhibition” value is listed as -25% and the Z score is 2.86.
Taken in the same sequence, the figures for `Cc1cc(C2CCC2)nc(N[C@H]2CCN(C(=O)c3ccccc3)C[C@@H]2O)n1` were 2% and -0.21.
Take `CNC(=O)c1cccc(C(=O)Nc2cc(C3CCCC3)[nH]n2)c1`: the “% Inhibition” value is -5% and the Z score is listed as 0.87.
Turning to `CO[C@H]1CCCC[C@@H]1NC(=O)Cc1cccc(C(=O)O)c1`, the “% Inhibition” value was -6% and the Z score turned out to be 1.29.
Taken in the same sequence, the figures for `COc1ccccc1C(=O)Nc1nc(CCc2c[nH]c3ccccc23)n[nH]1` were -3% and 0.35.
In the case of `COc1ccc(S(=O)(=O)N2CC(Nc3ncccn3)C2)cc1Cl`, the “% Inhibition” value is given as -10% and the Z score is listed as 1.12.
`Cc1cc(F)cc(-c2cc(N(C)C)ncn2)c1`: the “% Inhibition” value is -6% and the Z score worked out at 0.82.
On to `CC(C)Oc1cc(Br)ccc1C(=O)NC[C@H]1COC(C)(C)O1`, for which the “% Inhibition” value is -13% and the Z score was 2.81.
As for `O=C(Nc1cc(-c2onc3c2CCCC3)cc(C(F)(F)F)c1)c1cncc(Br)c1`, the “% Inhibition” value is listed as 96% and the Z score is given as -8.79.
For `Cc1ccn(CCC(=O)NC[C@@H](c2ccncc2)N2CCOCC2)n1`, the “% Inhibition” value is recorded as -11% and the Z score turned out to be 1.55.
As for `CCN(Cc1nc(-c2cc(F)cc(F)c2)oc1C)C[C@H]1CCCO1`, the “% Inhibition” value is 18% and the Z score is -2.37.
`O=C(NCCn1cc(Cl)cn1)c1c[nH]nc1-c1ccccc1`: the “% Inhibition” value is reported as -4% and the Z score was determined as 0.71.
In the case of `O=C(NC[C@H]1CCCO1)N(Cc1ccsc1)CC(F)(F)F`, the “% Inhibition” value is 4% and the Z score is -0.51.
Consider `O=C(c1csc(Nc2ccncc2)n1)N1CCN(C2CCCCC2)CC1`, for which the “% Inhibition” value is 18% and the Z score is -2.85.
For the compound `COc1ccc(Cc2nc3nccc(-c4ccncc4)n3n2)cc1`, the “% Inhibition” value came to 0% and the Z score came out at 0.06.
Taken in the same sequence, the figures for `O=C(Nc1nnc(CCC2CCCCC2)s1)C1CCCCC1` were -10% and 1.41.
Take `CC(C)C[C@H]1CC(=O)Nc2c1c(=O)[nH]n2C(C)C`: the “% Inhibition” value was 32% and the Z score is listed as -3.58.
In the case of `Cc1n[nH]c(=O)c(C(=O)NC2CCCCCC2)c1C`, the “% Inhibition” value amounted to 10% and the Z score was -1.35.
The like results for `CC1(C)Cc2[nH]ncc2CN(CCc2ccc(F)c(F)c2)C1` were, in that order, -3% and 0.46.
On to `COc1ccc(CN2CC(N3CCCC[C@@H]3C)C2)cc1Cn1cccn1`, for which the “% Inhibition” value is reported as -2% and the Z score is 0.24.
Consider `CCN(C(=O)[C@H]1CC(=O)N(c2ccc(C)cc2)C1)c1ccccc1C`, for which the “% Inhibition” value was -7% and the Z score came to 0.96.
The like results for `CC1=C(c2ccccc2)[C@H]1C(=O)NCC(C)(C)N1CCCC1` were, in that order, -8% and 1.45.
Consider `Cc1nc(-n2nc(-c3ccco3)cc2N)[nH]c(=O)c1C`, for which the “% Inhibition” value is on record as -16% and the Z score was 1.82.
`O=C(c1cncc(F)c1)N1CCC(=C2CC2)CC1`: the “% Inhibition” value is reported as 0% and the Z score worked out at 0.06.
`Cn1ccnc1C(=O)NCCOc1ccccc1Cl`: the “% Inhibition” value was -10% and the Z score amounted to 1.7.
`CC(=O)c1c(F)cccc1-n1cc[n+](CCCOc2ccc(C(C)(C)C)cc2)c1`: the “% Inhibition” value turned out to be 9% and the Z score is on record as -1.55.
With `OC(CNC1CCCn2ccnc21)COc1ccccc1Br` (stereo not given), the “% Inhibition” value is 4% and the Z score is recorded as -0.77.
On to `CC[C@H](C)[C@H](NC(=O)C(C)Cc1c(C)noc1C)C(=O)O` (stereo not given in full), for which the “% Inhibition” value is -21% and the Z score came to 2.1.
With `CCC[C@@]1(C2CCN(C(=O)C(=O)c3ccccc3)CC2)NC(=O)N(CCc2ccccn2)C1=O`, the “% Inhibition” value is reported as -3% and the Z score stood at 0.39.
Taken in the same sequence, the figures for `Cc1ccc(CN(CCc2ccccc2)C(=O)CN(CCN2CCCCC2)C(=O)C2CCCC2)o1` were -3% and 0.22.
Take `Cc1cnc2c(c1)N(C(=O)c1cnn(C(C)C)c1C)CC2`: the “% Inhibition” value is -7% and the Z score was 1.34.
Taken in the same sequence, the figures for `CCN(CC)CC(=O)Nc1c(C)cc(N)cc1C` were -34% and 3.94.
In the case of `C[C@@H](CC(=O)NCCNC(=O)Cc1ccccc1)c1cccc(F)c1`, the “% Inhibition” value came out at 0% and the Z score is on record as 0.07.
Taken in the same sequence, the figures for `COc1cc(NC(=O)COC[C@H]2CCCO2)c(F)cc1C#N` were -5% and 0.81.
For `O=C1c2ccccc2C(=O)N1CCn1nc(C(F)(F)F)ccc1=O`, the “% Inhibition” value was 2% and the Z score was -0.28.
Regarding `CC1CCN([C@@H]2[C@H](O)[C@H](CO)O[C@@H]2CNC(=O)c2ccc(F)c(Cl)c2)CC1`, the “% Inhibition” value is given as -9% and the Z score is 1.42.
Turning to `CCOC(=O)C(C(=O)OCC)N(C)S(=O)(=O)c1cnn(CC)c1`, the “% Inhibition” value is given as -1% and the Z score was found to be 0.14.
With `COc1cccc(N2CCC(N3C[C@H](C(=O)O)[C@@H](C4CC4)C3)CC2)c1`, the “% Inhibition” value is reported as -7% and the Z score is on record as 1.23.
Taken in the same sequence, the figures for `CCc1cc(Cl)ccc1NC(=O)N1CC[C@]2(CCN(C)C2)C1` were -12% and 1.27.
As for `CCn1cc([C@H](CC(=O)N2CCN(Cc3ccc4c(c3)OCO4)CC2)c2cccc(OC)c2)c2ccccc21`, the “% Inhibition” value was 32% and the Z score is recorded as -0.17.
On to `O=C(c1cncnc1C1CC1)N1CCCCCO1`, for which the “% Inhibition” value is given as -3% and the Z score is given as 0.58.
In the case of `CC(C)c1noc(CNc2cc(Cl)ccc2N2CCC(CO)CC2)n1`, the “% Inhibition” value is reported as -6% and the Z score was 0.84.
The like results for `CCN(CC)S(=O)(=O)c1ccc(N2CCOCC2)c(NC(=O)C2=COCCO2)c1` were, in that order, 24% and -2.85.
Regarding `Cc1cc(NC[C@H](C)n2nc(C)cc2C)nc(N(C)C)n1`, the “% Inhibition” value is given as -10% and the Z score is 1.09.
Regarding `Cc1cc(C)c2c(CC(=O)NCCc3cnn[nH]3)coc2c1C`, the “% Inhibition” value is reported as -3% and the Z score is reported as 0.34.
The like results for `NC(=O)C[C@]1(O)CCCN(Cc2ncc(C(F)(F)F)s2)C1` were, in that order, -10% and 1.6.
With `COC[C@H](NCc1cn(CCC(N)=O)c2ccccc12)c1ccnn1C`, the “% Inhibition” value is -3% and the Z score is listed as 0.44.
As to `Cc1cc(F)ccc1-n1ccc(C(=O)N2CCC[C@H]2CO)n1`, the “% Inhibition” value is given as -5% and the Z score is on record as 0.92.
